Out of some 48,000 compounds screened, about 1,200 (2.5%) were called active. Roughly 2% stayed inconclusive and do not appear here.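 Rule for the calls: active = activation of at least 60% and not above a set upper limit (about 1 call in 100 departs from these limits); inconclusive = activation of 40% to 60%, or above that upper limit; inactive = activation under 40%.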 The list shows a part of the results.

Chain of UniProt O75388 (O75388 whole entry, looked up): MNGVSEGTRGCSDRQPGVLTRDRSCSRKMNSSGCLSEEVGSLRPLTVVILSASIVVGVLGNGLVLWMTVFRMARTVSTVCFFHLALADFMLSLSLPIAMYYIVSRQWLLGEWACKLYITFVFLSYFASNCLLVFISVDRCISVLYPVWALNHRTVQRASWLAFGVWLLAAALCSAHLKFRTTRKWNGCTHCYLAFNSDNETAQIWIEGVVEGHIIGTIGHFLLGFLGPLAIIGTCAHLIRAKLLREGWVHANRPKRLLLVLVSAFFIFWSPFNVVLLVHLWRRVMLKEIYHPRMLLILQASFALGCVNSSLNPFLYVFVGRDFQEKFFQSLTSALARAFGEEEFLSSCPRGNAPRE

In this assay the target is Probable G-protein coupled receptor 32 (Homo sapiens) (UniProt O75388). As to the kind of experiment: qHTS for Agonists of Human Resolvin D1 Receptor DRV1. Note: 0% is about no effect. The conditions noted are these: CHO-K1 GPR32 beta-arrestin PathHunter luminescence, 90 min; at 76.9 µM; hits give high values; zero percent set by DMSO-only wells. A digest of the protocol:
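Cells are plated overnight, treated with compounds in DMSO for 90 minutes at 37 °C, and developed with PathHunter detection reagent for 1 hour before luminescence is read; signal reflects beta-arrestin binding to GPR32 in engineered CHO-K1 cells.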
For orientation: In qHTS, concentration-response curves come from the screen itself.
`O=C(Nc1ccc2nc(SCC(=O)N3CCCC3)sc2c1)c1ccc(F)cc1`: the activation is inactive: -4.15%. As for `CCOc1ccccc1NC(=O)Cn1c(=O)n(Cc2ccccc2)c(=O)c2c(C)c(C(=O)N(C)C)sc21`, the figure is inactive: -24.5%; as for `CCN(CC)C(=O)CSc1nc2cc3c(cc2c(=O)n1Cc1ccc(C(=O)NCCc2ccc(OC)c(OC)c2)cc1)OCO3`, inactive: -23.8%; as for `COc1cc(Cl)c(C)cc1NC(=O)c1cn(CC(C)C)c(=O)c2cc(OC)c(OC)cc12`, inactive: 7.68%. Next, `COc1ccc(CNC(=O)CCCn2c(SCC(N)=O)nc3cc4c(cc3c2=O)OCO4)cc1`: inactive: -12.3%; `Cc1cc(Nc2cccc(Cl)c2C)n2nc(Cc3ccccc3)nc2n1`: inactive: -3.99%.

Turning to `CC(NC(=O)c1ccccc1)c1nc2ccccc2n1Cc1ccc(Cl)cc1` (centres undefined), the activation was inactive: -19.5%. As for `COc1ccc(CNC(=O)c2cnn3c(C)c(Cc4ccc(F)cc4)c(C)nc23)cc1`, the figure is inactive: -3.03%; as for `CC(C)OCCCNC(=O)CCCn1c(SCC(=O)c2ccc(Br)cc2)nc2c(sc3ccccc32)c1=O`, inactive: -12.1%. Next, `Cc1cc(C)c(NC(=O)Cn2c(=O)n(CCCCC(=O)NCc3ccccc3Cl)c(=O)c3ccccc32)c(C)c1`: inactive: -4.27%. As for `COc1cc(CN(CC2CCCO2)C(=O)c2ccccc2F)cc(OC)c1OC` (centres undefined), the figure is inactive: -2.88%.

Consider `COc1cccc(C(c2sc3nc(-c4ccco4)nn3c2O)N2CCCC2)c1` (centres undefined), for which the activation was inactive: 28.2%. With `COc1ccccc1Cn1ccn(CC(=O)Nc2c(C)cc(C)cc2C)c(=O)c1=O`, the activation was inactive: -9.06%. Consider `CC(C)C(=O)NC1CC(=O)N(c2ccc3c(c2)OCCO3)C1` (centres undefined), for which the activation was inactive: -2.9%. Next, `Cc1nnc(N2CCN(c3ccc(Cl)cc3)CC2)c2c1nnn2Cc1ccc(F)cc1`: inactive: 5.71%; `CC1CCCCN1C(=O)c1ccc2c(c1)N(Cc1ccc(Cl)cc1)C(=O)c1ccccc1S2=O` (centres undefined): inactive: -18.9%; `COc1cc(OC)cc(C(=O)NCCc2csc(-c3cccc(C)c3)n2)c1`: inactive: 4.8%. As for `CCc1ccc(NC(=O)C(=O)NCCc2sc(-c3ccc(OC)c(OC)c3)nc2C)cc1`, the figure is inactive: -7.22%. With `Cc1ccc(-n2nc(C)c3c(C)cc(=O)n(CC(=O)Nc4ccc(C(C)C)cc4)c32)cc1`, the activation is inactive: -7.64%. As for `CN(C1CCCCC1)S(=O)(=O)c1ccc(F)c(C(=O)Nc2ccc(C(F)(F)F)cc2)c1`, the figure is inactive: -21.7%. Next, `COc1ccc(NC(=O)c2c(NCc3cccs3)sc3c2CCCCC3)cc1`: inactive: 2.14%; `Cc1c(C(=O)Nc2cccc(F)c2)sc2nc(-c3cc4ccccc4oc3=O)[nH]c(=O)c12`: inactive: -5.44%. For the compound `O=C(NCc1ccccc1Cl)c1ccc2c(c1)N(Cc1ccccc1)C(=O)c1ccccc1S2`, the activation was inactive: -21.2%.

For `CCOC(=O)c1[nH]c2ccccc2c1NC(=O)c1c(F)cccc1F`, the activation was inactive: -16.3%.

Consider `CCOC(=O)c1sc2ncn(CC(=O)Nc3cccc(C)c3)c(=O)c2c1C`, for which the activation is inactive: 2.39%. In the case of `COc1cccc(OCCCn2c(-c3ccc(Cl)cc3)nc3ccccc3c2=O)c1`, the activation is inactive: 2.34%. As for `CCc1cccc(NC(=O)c2cc(-c3ccccc3)n[nH]2)c1`, the figure is inactive: -0.275%.

Take `O=C(Nc1cccc(Cl)c1)C1CCN(c2nc3ccccc3nc2C(F)(F)F)CC1`: the activation is inactive: -14.7%. Next, `O=C(c1ccc2c(c1)CCN2S(=O)(=O)c1ccc(Cl)cc1)N1CCN(c2ccccc2F)CC1`: inactive: -8.97%; `COc1ccc(Nc2ncc(C(=O)N3CCN(c4ccc(OC)cc4)CC3)c3ccccc23)cc1`: inactive: 45.7%; `CCCCNC(=O)c1cnc2sc(N3CCCCC3)nn2c1=O`: inactive: 10.6%.

Take `Cc1ccccc1Cn1c(=O)n(Cc2ccco2)c(=O)c2oc3ccccc3c21`: the activation was inactive: -18.5%. Take `Cc1c(F)cccc1NS(=O)(=O)c1cccs1`: the activation is inactive: -7.21%. Take `Cc1cc(OC(C)C(=O)N2CCN(CCc3ccccn3)CC2)ccc1Cl` (centres undefined): the activation was inactive: 39.3%. As for `Cc1nc2c(c(SCC(=O)Nc3ccccc3C(F)(F)F)n1)CCC2`, the figure is inactive: -4.43%; as for `CN(C)c1ccc(CN2CCc3nc(N4CCN(c5ccccn5)CC4)ncc3C2)cc1`, inactive: -2.71%. As to `CCOc1ccccc1N1CC(c2nc3ccccc3n2CCCOc2ccccc2)CC1=O` (centres undefined), the activation was inactive: -1.9%. Consider `CCOc1ccccc1C(N)=O`, for which the activation is inactive: -64.4%.

Regarding `CCC(CC)C(=O)Nc1ccc(OCc2cc(=O)n3ccc(C)cc3n2)cc1`, the activation was inactive: -6.63%. Next, `CCOC(=O)C1CCN(C(=O)c2nn(-c3ccc(C)cc3)c(=O)c3c2c2ccccc2n3C)CC1`: inactive: -3.19%.

Regarding `CC(C)N(Cc1ccccc1)C(=O)c1cc2ccc3cccnc3c2[nH]1`, the activation was inactive: 11.7%. As for `Cc1ccc(C(=O)Nc2ccc(C(=O)O)cc2)cc1S(=O)(=O)Nc1ccccc1`, the figure is inactive: -13.1%; as for `COc1cccc2c1cc1c(=O)n(CC(=O)N3CCCCC3)nc(C)n12`, inactive: -7.35%. Next, `CCC(C)NS(=O)(=O)c1ccc(N2CCCCS2(=O)=O)cc1` (centres undefined): inactive: 0.983%. As for `COc1ccc(C)cc1NC(=O)C1CCCN(S(=O)(=O)c2ccc3c(c2)CCCN3C(C)=O)C1` (centres undefined), the figure is inactive: -10.1%. Regarding `Fc1cccc(NCc2ccccc2-c2nnc(-c3ccccc3Cl)o2)c1`, the activation is inactive: -13.6%. As for `NC(=O)C1CCN(c2ncnc3c2cnn3-c2ccccc2)CC1`, the figure is inactive: 4.98%. Next, `O=c1c2oc3ccccc3c2n(Cc2ccc(Cl)cc2)c(=O)n1Cc1ccc2c(c1)OCO2`: inactive: -18.6%; `Cc1ccc(-n2c3c(c(=O)[nH]c2=O)C(NS(=O)(=O)c2ccc(Cl)cc2)(C(F)(F)F)C(=O)N3)cc1` (centres undefined): inactive: 0.244%. For `CCC(CC)C(=O)Nc1nnc(SCc2cc(=O)c3ccccc3[nH]2)s1`, the activation is active: 99%. Next, `COCCNC(=O)CSc1nc2cc3c(cc2c(=O)n1CCCC(=O)NCCc1ccc(OC)c(OC)c1)OCO3`: inactive: -15.1%; `Cc1ccc(Cl)cc1N1CCN(C2(c3ccccc3)C(=O)c3ccccc3C2=O)CC1`: inactive: -22.1%; `COc1cccc(NC(=O)Cn2c(=O)n(-c3cccc(OC)c3)c(=O)c3sc4ccccc4c32)c1`: inactive: 4.33%. As for `CCCCNC(=O)CCCN1C(=O)CCn2nc(-c3cccn3C)cc21`, the figure is inactive: -14.5%; as for `CCOCCCNC(=O)CN1C(=O)c2cccnc2Sc2ccccc21`, inactive: -4.71%.

`CCC(C)(C)NC(=O)C1CCC(CNS(=O)(=O)c2ccc3c(c2)CC(C)N3C(C)=O)CC1` (centres undefined): the activation was inactive: 12%.

Consider `CCN(CC)CCn1c(=O)c(Cc2ccc(OC)cc2)nc2ccccc21`, for which the activation is inactive: -13.6%. As for `COc1ccc2c(CNCc3ccco3)c(C(=O)O)n(Cc3ccc(F)cc3Cl)c2c1`, the figure is inactive: -21.5%; as for `Fc1ccccc1N1CCN(c2nnc(C(F)(F)F)c3nnn(Cc4ccccc4)c23)CC1`, inactive: -0.964%. As for `O=C(Cn1c(SCCOc2ccccc2Cl)nc2ccccc21)N1CCOCC1`, the activation is inactive: -3.71%. With `CCc1ccc(NC(=O)CSc2nc(-c3ccccc3)no2)cc1`, the activation was inactive: 30.5%. As for `COc1ccc(CCNc2ncnc3c2nnn3C)cc1OC`, the figure is inactive: 6.77%.

Regarding `CN(C)S(=O)(=O)N(CC(=O)Nc1ccc(Br)cc1F)c1ccccc1`, the activation was inactive: 28.7%.

As to `Cc1cc(C)cc(NC(=O)c2sc3nc[nH]c(=O)c3c2C)c1`, the activation was inactive: -2.12%.

Turning to `CCOC(=O)Cn1c(=O)n(CC2CCCO2)c2nc(-c3ccccc3Cl)nc(C(N)=O)c21` (centres undefined), the activation is inactive: -13.3%.

For `CCOc1ccc(N(CC)C(=O)c2noc3c2COc2ccc(C)cc2-3)cc1`, the activation is inactive: -12%. Turning to `COc1ccccc1C(=O)Nc1c(C(=O)c2ccccc2)oc2ccccc12`, the activation was inactive: -8.14%.

For `O=c1c(N2CCc3ccccc3C2)csc2ccc(F)cc12`, the activation is inactive: -22.3%.

Take `CC1=C(C(=O)Nc2ccccc2C)C(c2cccs2)n2nc(SCc3cc(C)ccc3C)nc2N1` (centres undefined): the activation was inactive: -3.61%. As for `CCOC(=O)c1ccc(CN(Cc2ccc(OC)cc2)S(=O)(=O)c2cccc(C(F)(F)F)c2)cc1`, the figure is inactive: -7.14%; as for `O=C(CCCn1c(=O)c2cccn2c2cccnc21)Nc1ccccc1C(F)(F)F`, inactive: -9.03%; as for `CCOc1ccccc1NC(=O)C1=C(C)Nc2ncnn2C1c1sccc1C` (centres undefined), inactive: -6.05%. Take `Cc1ccc(CNC(=O)c2c(-c3ccc(Br)cc3)noc2C)o1`: the activation was inactive: -19.1%.

With `CCn1c2c(c(=O)n3ncc(C(=O)Nc4ccc(C(=O)OC)cc4)c13)CN(Cc1ccc(OC)cc1)CC2`, the activation was inactive: -1.25%. `COc1ccc(C)cc1NC(=O)c1ccc2nc(Cc3ccccc3)oc2c1`: the activation is inactive: -24.2%. As for `COc1ccc(CCNC(=O)c2c(O)nc3c(C)cccn3c2=O)cc1OC`, the figure is inactive: -1.21%; as for `Cc1c(C(=O)NCc2ccccc2)oc2ccc(S(=O)(=O)N3CCC(C)CC3)cc12`, inactive: -7.15%; as for `Cc1ccc(NC(=O)C(=O)NCC(c2cccnc2)N2CCN(C)CC2)cc1` (centres undefined), inactive: -3.01%.

As to `O=C(NCCc1ccc(Cl)cc1)C(=O)NCC(c1ccco1)S(=O)(=O)c1ccccc1` (centres undefined), the activation is inactive: 12.5%. As to `CCn1c(CN2CCCCC2)nc2cc(NC(=O)COc3ccccc3C(C)(C)C)ccc21`, the activation is inactive: 9.08%. As for `Cc1coc2c1c(C)cc1oc(=O)c(CC(=O)NCCc3ccc(Cl)cc3)c(C)c12`, the figure is inactive: -20.7%; as for `COc1ccc(N2CCN(C(=O)c3cc(-c4ccc(C)c(F)c4)on3)CC2)cc1`, inactive: 5.2%. As for `Cc1c(C(=O)NCCc2ccc(Cl)cc2)cccc1-n1cnc2cccnc21`, the figure is inactive: -3.69%. Next, `COc1ccc(N2CCN(C(=O)CSc3nc4ccccc4nc3Cc3ccc(Cl)cc3)CC2)cc1`: inactive: -21.2%.

The values are drawn from PubChem BioAssay AID1346428 (National Center for Advancing Translational Sciences (NCATS), 2018).
